Among the data in the antibiotic and cytotoxicity screens of Wong et al. (2023) are cytotoxicity call and growth inhibition call values, retold here.

The list shows a part of the results.

One test deals with HSkMC. Kind of test: cytotoxicity call (relative viability < 0.9). The note with it: 10 µM.
The subject of a further test is HepG2. Kind of test: cytotoxicity call (relative viability < 0.9). To be noted: 10 µM.
Another test deals with S. aureus RN4220. In words: growth inhibition call (relative growth <= 0.2). To be noted: 50 µM.

For `C[C@@H]1CN([C@@H](C)CO)C(=O)c2cccc(NC(=O)Nc3cccc4ccccc34)c2O[C@H]1CN(C)C(=O)Nc1ccc(F)cc1`, the cytotoxicity call with HSkMC and in the test with HepG2 was “inactive” each time. Moreover, the growth inhibition call in the test with S. aureus RN4220 was “inactive”.
Regarding `COCC#Cc1ccc2c(c1)O[C@@H](CN(C)C(=O)c1ccccc1F)[C@H](C)CN([C@@H](C)CO)S2(=O)=O`, the cytotoxicity call in the test with HSkMC and with HepG2 was “inactive” throughout. The growth inhibition call in the test on S. aureus RN4220 is “inactive”.
For `C[C@@H]1CN([C@H](C)CO)C(=O)c2cc(NC(=O)Cn3cnnn3)ccc2O[C@H]1CN(C)Cc1ccc(C(=O)O)cc1`, the cytotoxicity call with HSkMC and in the test with HepG2 was “inactive” in each case. In addition, the growth inhibition call in the test with S. aureus RN4220 is “inactive”.
Take `COc1ccc(NC(=O)N(C)C[C@H]2Oc3ccc(NS(=O)(=O)c4c(C)noc4C)cc3C(=O)N([C@@H](C)CO)C[C@@H]2C)cc1`: the cytotoxicity call in the test on HSkMC (human skeletal muscle cells) and with HepG2 was “inactive” throughout. The growth inhibition call with S. aureus RN4220 was “inactive”.
On to `C[C@@H]1CN([C@H](C)CO)C(=O)c2cc(NC(=O)CCCCCC(=O)Nc3ccccc3N)ccc2O[C@@H](C)CCCCO[C@@H]1CN(C)S(=O)(=O)c1ccc(Cl)cc1`, for which the cytotoxicity call with HSkMC and in the test on HepG2 was “inactive” each time. For the same compound, the growth inhibition call with S. aureus RN4220 was “inactive”.
For `COc1cc(C=CC(N)=O)cc(OC)c1OC`, the cytotoxicity call in the test with HSkMC is “inactive”. Besides, the cytotoxicity call with HepG2 was “active”. Moreover, the growth inhibition call in the test with S. aureus RN4220 was “inactive”.
For the compound `CC(C)NC(=O)N(C)C[C@H]1Oc2ccc(NS(=O)(=O)c3ccc(Cl)cc3)cc2C(=O)N([C@H](C)CO)C[C@@H]1C`, the cytotoxicity call in the test with HSkMC and in the test on HepG2 was “inactive” throughout. Besides, in the test on S. aureus RN4220, the growth inhibition call is “inactive”.
Consider `C[C@H]1CN([C@@H](C)CO)S(=O)(=O)c2ccc(Br)cc2O[C@@H]1CN(C)C(=O)C1CCCCC1`, for which the cytotoxicity call with HSkMC and in the test on HepG2 was “inactive” in each case. The growth inhibition call in the test on S. aureus RN4220 was “inactive”.
For `Cc1noc(C)c1S(=O)(=O)Nc1ccc2c(c1)CC(=O)N([C@@H](C)CO)C[C@H](C)[C@H](CN(C)Cc1ccccc1)O2`, the cytotoxicity call in the test with HSkMC and in the test on HepG2 was “inactive” each time. Also, in the test with S. aureus RN4220, the growth inhibition call was “inactive”.
